# Data published in PMC9911399, “Two distinct binding modes provide the RNA-binding protein RbFox with extraordinary sequence specificity”.
# Where a chain is given by its changes, count along the chain named. The list shows a part of the results.
# T1: RBFOX1 RRM RbFoxmut (Fox-RRM*) (Homo sapiens, UniProt Q9NWB1 109-208, R118D;E147R;N151S;E152T)
# T1 sequence: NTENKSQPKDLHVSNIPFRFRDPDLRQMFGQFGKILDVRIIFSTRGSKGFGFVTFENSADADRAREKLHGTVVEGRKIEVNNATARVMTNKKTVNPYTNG
# B1: GUAGGAA (DNA:RNA)
# RNA: GGGAGACCGGAAUUCAGAUUGUCCGUAGGAAUUAAAUCCCGUCGUAGCCACCA
# DNA 1: CAATCTGAATTCCGGTCTCCC
# DNA 2: TGGTGGCTACGACGGGATT
# B2: UCUGGGG (DNA:RNA)
# RNA: B1 RNA with G25U, U26C, A27U, A30G, A31G
# DNA 1: CAATCTGAATTCCGGTCTCCC
# DNA 2: TGGTGGCTACGACGGGATT
# B3: CCCUAUA (DNA:RNA)
# RNA: B1 RNA with G25C, U26C, A27C, G28U, G29A, A30U
# DNA 1: CAATCTGAATTCCGGTCTCCC
# DNA 2: TGGTGGCTACGACGGGATT
# B4: AUACUCC (DNA:RNA)
# RNA: B1 RNA with G25A, G28C, G29U, A30C, A31C
# DNA 1: CAATCTGAATTCCGGTCTCCC
# DNA 2: TGGTGGCTACGACGGGATT
# B5: CCAACAA (DNA:RNA)
# RNA: B1 RNA with G25C, U26C, G28A, G29C
# DNA 1: CAATCTGAATTCCGGTCTCCC
# DNA 2: TGGTGGCTACGACGGGATT
# B6: AGAGACU (DNA:RNA)
# RNA: B1 RNA with G25A, U26G, G29A, A30C, A31U
# DNA 1: CAATCTGAATTCCGGTCTCCC
# DNA 2: TGGTGGCTACGACGGGATT
# B7: GACUACC (DNA:RNA)
# RNA: B1 RNA with U26A, A27C, G28U, G29A, A30C, A31C
# DNA 1: CAATCTGAATTCCGGTCTCCC
# DNA 2: TGGTGGCTACGACGGGATT
# B8: CAGAUUC (DNA:RNA)
# RNA: GGGAGACCGGAAUUCAGAUUGUCCCAGAUUCUUAAAUCCCGUCGUAGCCACCA
# DNA 1: CAATCTGAATTCCGGTCTCCC
# DNA 2: TGGTGGCTACGACGGGATT
# B9: CACUCUU (DNA:RNA)
# RNA: B8 RNA with G27C, A28U, U29C, C31U
# DNA 1: CAATCTGAATTCCGGTCTCCC
# DNA 2: TGGTGGCTACGACGGGATT
# B10: AGGGCGC (DNA:RNA)
# RNA: B8 RNA with C25A, A26G, A28G, U29C, U30G
# DNA 1: CAATCTGAATTCCGGTCTCCC
# DNA 2: TGGTGGCTACGACGGGATT
# B11: CCGCCGC (DNA:RNA)
# RNA: B8 RNA with A26C, A28C, U29C, U30G
# DNA 1: CAATCTGAATTCCGGTCTCCC
# DNA 2: TGGTGGCTACGACGGGATT
# B12: GUGAGUU (DNA:RNA)
# RNA: B8 RNA with C25G, A26U, U29G, C31U
# DNA 1: CAATCTGAATTCCGGTCTCCC
# DNA 2: TGGTGGCTACGACGGGATT
# B13: CCAACUA (DNA:RNA)
# RNA: B8 RNA with A26C, G27A, U29C, C31A
# DNA 1: CAATCTGAATTCCGGTCTCCC
# DNA 2: TGGTGGCTACGACGGGATT
# B14: AUCGUGU (DNA:RNA)
# RNA: B1 RNA with G25A, A27C, G29U, A30G, A31U
# DNA 1: CAATCTGAATTCCGGTCTCCC
# DNA 2: TGGTGGCTACGACGGGATT
# B15: AACUAGA (DNA:RNA)
# RNA: B8 RNA with C25A, G27C, A28U, U29A, U30G, C31A
# DNA 1: CAATCTGAATTCCGGTCTCCC
# DNA 2: TGGTGGCTACGACGGGATT
# B16: UCUAUUU (DNA:RNA)
# RNA: B8 RNA with C25U, A26C, G27U, C31U
# DNA 1: CAATCTGAATTCCGGTCTCCC
# DNA 2: TGGTGGCTACGACGGGATT
# B17: CACUCAG (DNA:RNA)
# RNA: B8 RNA with G27C, A28U, U29C, U30A, C31G
# DNA 1: CAATCTGAATTCCGGTCTCCC
# DNA 2: TGGTGGCTACGACGGGATT
# B18: GUCCGGC (DNA:RNA)
# RNA: B1 RNA with A27C, G28C, A30G, A31C
# DNA 1: CAATCTGAATTCCGGTCTCCC
# DNA 2: TGGTGGCTACGACGGGATT
# B19: ACCAAGC (DNA:RNA)
# RNA: B8 RNA with C25A, A26C, G27C, U29A, U30G
# DNA 1: CAATCTGAATTCCGGTCTCCC
# DNA 2: TGGTGGCTACGACGGGATT
# B20: UAAAUGU (DNA:RNA)
# RNA: B8 RNA with C25U, G27A, U30G, C31U
# DNA 1: CAATCTGAATTCCGGTCTCCC
# DNA 2: TGGTGGCTACGACGGGATT
# B21: CGCAAGC (DNA:RNA)
# RNA: B8 RNA with A26G, G27C, U29A, U30G
# DNA 1: CAATCTGAATTCCGGTCTCCC
# DNA 2: TGGTGGCTACGACGGGATT
# B22: CAAAGGU (DNA:RNA)
# RNA: B8 RNA with G27A, U29G, U30G, C31U
# DNA 1: CAATCTGAATTCCGGTCTCCC
# DNA 2: TGGTGGCTACGACGGGATT
# B23: ACGGGAU (DNA:RNA)
# RNA: B1 RNA with G25A, U26C, A27G, A31U
# DNA 1: CAATCTGAATTCCGGTCTCCC
# DNA 2: TGGTGGCTACGACGGGATT
# B24: UGGAUCG (DNA:RNA)
# RNA: B8 RNA with C25U, A26G, U30C, C31G
# DNA 1: CAATCTGAATTCCGGTCTCCC
# DNA 2: TGGTGGCTACGACGGGATT
# B25: ACCAGCA (DNA:RNA)
# RNA: B1 RNA with G25A, U26C, A27C, G28A, A30C
# DNA 1: CAATCTGAATTCCGGTCTCCC
# DNA 2: TGGTGGCTACGACGGGATT
# B26: UGGUCUA (DNA:RNA)
# RNA: B8 RNA with C25U, A26G, A28U, U29C, C31A
# DNA 1: CAATCTGAATTCCGGTCTCCC
# DNA 2: TGGTGGCTACGACGGGATT
# B27: CUCCAGC (DNA:RNA)
# RNA: B8 RNA with A26U, G27C, A28C, U29A, U30G
# DNA 1: CAATCTGAATTCCGGTCTCCC
# DNA 2: TGGTGGCTACGACGGGATT
# B28: AUCGCCC (DNA:RNA)
# RNA: B1 RNA with G25A, A27C, G29C, A30C, A31C
# DNA 1: CAATCTGAATTCCGGTCTCCC
# DNA 2: TGGTGGCTACGACGGGATT
# B29: CGAUAAC (DNA:RNA)
# RNA: B8 RNA with A26G, G27A, A28U, U29A, U30A
# DNA 1: CAATCTGAATTCCGGTCTCCC
# DNA 2: TGGTGGCTACGACGGGATT
# B30: CACACGA (DNA:RNA)
# RNA: B8 RNA with G27C, U29C, U30G, C31A
# DNA 1: CAATCTGAATTCCGGTCTCCC
# DNA 2: TGGTGGCTACGACGGGATT
# B31: UGUCACU (DNA:RNA)
# RNA: GGGAGACCGGAAUUCAGAUUGUCCUGUCACUUUAAAUCCCGUCGUAGCCACCA
# DNA 1: CAATCTGAATTCCGGTCTCCC
# DNA 2: TGGTGGCTACGACGGGATT
# Molecular target: T1, RBFOX1 RRM RbFoxmut (Fox-RRM*)
# Assay: EMSA; HiTS-Eq, 1 nM pool, 10 min; buffer printed only for the single-RNA assays: 10 mM Tris pH 7.5, 150 mM NaCl, 3.4 mM EDTA, 0.001% NP-40, 30 C
# Conditions: tags: His6 N-terminal (pET28a); label: 5' 32P
# Outline: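 These values rest on relative association constants, computed from read-count changes of each RNA species versus the control reaction and normalised to the cognate motif. Reads came from free RNA recovered by 8% native PAGE after purified RbFox RRM (wild type or mutant) at increasing concentrations was equilibrated for 10 min in 50 µL with 1 nM of a 5′-radiolabelled pool with 7 randomized nucleotides and DNA-annealed flanks.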
row,Binder,binding signal
1,B1,0.0961 KA relative to UGCAUGU
2,B2,0.0593 KA relative to UGCAUGU
3,B3,0.108 KA relative to UGCAUGU
4,B4,0.0666 KA relative to UGCAUGU
5,B5,0.0481 KA relative to UGCAUGU
6,B6,0.0725 KA relative to UGCAUGU
7,B7,0.0415 KA relative to UGCAUGU
8,B8,0.115 KA relative to UGCAUGU
9,B9,0.0754 KA relative to UGCAUGU
10,B10,0.0987 KA relative to UGCAUGU
11,B11,0.075 KA relative to UGCAUGU
12,B12,0.113 KA relative to UGCAUGU
13,B13,0.0921 KA relative to UGCAUGU
14,B14,0.177 KA relative to UGCAUGU
15,B15,0.0999 KA relative to UGCAUGU
16,B16,0.0899 KA relative to UGCAUGU

row,Binder,binding signal
1,B17,0.108 KA relative to UGCAUGU
2,B18,0.116 KA relative to UGCAUGU
3,B19,0.0576 KA relative to UGCAUGU
4,B20,0.0741 KA relative to UGCAUGU
5,B21,0.0714 KA relative to UGCAUGU
6,B22,0.0691 KA relative to UGCAUGU
7,B23,0.105 KA relative to UGCAUGU
8,B24,0.597 KA relative to UGCAUGU
9,B25,0.121 KA relative to UGCAUGU
10,B26,0.122 KA relative to UGCAUGU
11,B27,0.114 KA relative to UGCAUGU
12,B28,0.0561 KA relative to UGCAUGU
13,B29,0.0716 KA relative to UGCAUGU
14,B30,0.0771 KA relative to UGCAUGU
15,B31,0.0703 KA relative to UGCAUGU
